Measured values from PubChem BioAssay AID1645882 (National Center for Advancing Translational Sciences (NCATS), 2021).
Hit rate of the full screen: of about 16,000 compounds, about 120 (0.75%) were called active. Inconclusive results (about 4%) are left out. The call rests on the fitted dose curve; in most records, active means well fitted inhibition curve with a large enough effect; inconclusive means small, poorly fitted or top-dose-only effect; inactive means no such curve, though single readings can be large or run the other way. The list shows a part of the results.

Target: Rap guanine nucleotide exchange factor 3 (Homo sapiens) (UniProt O95398)
Assay: Validation qHTS for antagonist of cAMP-regulated guanine nucleotide exchange factor 3 (EPAC1); further: nearly all actives have a fitted effect of over 75% in size
Conditions: EPAC1 Rap1B-BODIPY-GDP exchange, fluorescence; series mostly up to 150 µM; activity change, negative = inhibition: at the top concentration
Text: Assay Provider (PI): Xiaodong Cheng Ph.D.
The University of Texas Medical Branch, […], TX
In multi-cellular eukaryotic organisms, the effects of cAMP are transduced by two ubiquitously-expressed intracellular cAMP receptors, the classic protein kinase A/cAMP-dependent protein kinase (PKA/cAPK) and the more recently discovered exchange protein directly activated by cAMP/cAMP-regulated guanine nucleotide exchange factor (EPAC/cAMP-GEF). Both PKA and EPAC are ubiquitously expressed in all tissues, and an increase in intracellular cAMP levels will lead to the activation of both PKA and EPAC. Therefore, careful dissections of the individual role and relative contribution of EPAC and PKA within the overall cAMP signaling in various model systems are critical for further elucidating the mechanism of cAMP signaling. To date no EPAC-specific antagonists and agonist, as well as isoform-specific agonists have been reported, and developing EPAC-specific pharmacological probes to determine the physiological functions that EPAC play in the overall cAMP-mediated signaling remains a major challenge within the research field. Furthermore, identified regulators of EPAC may lead to new mechanism-based therapeutic strategies specifically targeting the EPAC / cAMP-signaling components as EPAC has been implicated to play important roles in major human pathological conditions such as diabetes, heart disease, and cancer.
This qHTS will be used to screen the Molecular Libraries Small Molecule Repository (MLSMR) as a concentration-titration series using the NCGC unique quantitative screening (qHTS) platform to find activators for EPAC1. In addition, this assay will also be used as a counterscreen for the EPAC2 qHTS. This fluorescent based assay is developed and validated for EPAC1 that measures exchange using EPAC effector Rap1 complex with BODIPY-GDP, a GDP analog with a tethered fluorophores. Activators are identified by monitoring the change in fluorescence signal as the exchanged free BODIPY-GDP has a reduced fluorescence compared to Rap1-bound BODIPY-GDP. Increase in signal (activation) is the desired outcome for the EPAC1 agonist while no activity in this assay is desired for the EPAC2 agonist counterscreen.
[1] de Rooij, J., Zwartkruis, F. J., Verheijen, M. H., Cool, R. H., Nijman, S. M., Wittinghofer, A., and Bos, J.L. (1998) Nature 396, 474-477.
Briefly, three uL of reagents (100 nM EPAC1, 250 nM RAP1B-BODIPY-GDP, 50 uM GDP) were dispensed into a 1536-well Greiner black solid-bottom medium binding assay plate. Controls and test compounds (23 nL) were transferred to the plate via a Kalypsys pin tool equipped with a 1536-pin array. The plates were centrifuged at 1,000 rpm for 15 seconds followed by 5 minute incubation at room temperature. The assay plates were read at 5 minute intervals for 30 minutes in the ViewLux plate reader using 480nm excitation and 540nm emission filters. The results were normalized to the […] positive control ATA and DMSO.

Chain of UniProt O95398 (O95398 whole entry, looked up): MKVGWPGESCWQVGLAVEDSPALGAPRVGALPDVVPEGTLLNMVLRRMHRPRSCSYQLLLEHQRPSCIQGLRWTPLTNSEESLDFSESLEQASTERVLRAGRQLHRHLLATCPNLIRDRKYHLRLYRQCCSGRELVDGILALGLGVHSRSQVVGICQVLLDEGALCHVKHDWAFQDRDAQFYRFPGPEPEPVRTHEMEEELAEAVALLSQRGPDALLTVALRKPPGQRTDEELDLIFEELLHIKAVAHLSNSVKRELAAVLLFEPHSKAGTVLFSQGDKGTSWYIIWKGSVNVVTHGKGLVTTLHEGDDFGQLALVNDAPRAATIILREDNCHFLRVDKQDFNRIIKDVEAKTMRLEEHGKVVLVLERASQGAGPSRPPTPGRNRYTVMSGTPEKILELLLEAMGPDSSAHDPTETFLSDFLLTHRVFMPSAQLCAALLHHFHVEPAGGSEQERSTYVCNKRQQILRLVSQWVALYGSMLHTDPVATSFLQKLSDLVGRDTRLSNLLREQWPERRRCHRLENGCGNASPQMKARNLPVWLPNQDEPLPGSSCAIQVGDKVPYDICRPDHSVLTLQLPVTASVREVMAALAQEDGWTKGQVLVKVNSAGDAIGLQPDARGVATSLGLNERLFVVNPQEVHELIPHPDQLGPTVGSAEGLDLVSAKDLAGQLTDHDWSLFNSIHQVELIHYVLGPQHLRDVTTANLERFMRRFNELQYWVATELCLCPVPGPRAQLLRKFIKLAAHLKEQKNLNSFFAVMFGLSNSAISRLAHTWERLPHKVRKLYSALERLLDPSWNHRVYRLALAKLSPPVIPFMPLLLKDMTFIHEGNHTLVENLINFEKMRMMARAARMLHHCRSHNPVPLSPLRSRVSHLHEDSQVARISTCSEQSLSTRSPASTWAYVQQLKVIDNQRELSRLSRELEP

Activity change, negative = inhibition, inactive:
NCCCCC(NC(CCc1ccccc1)C(=O)O)C(=O)N1CCCC1C(=O)O (stereo unspecified) 7.78%
CCC(=O)O[C@H](CC(=O)O)C[N+](C)(C)C 1.34%
Cc1cc(OC(=O)c2c(C)cc(O)cc2O)cc(O)c1C(=O)O
O=C(c1ccncc1)N1CCC2(CC1)CN(c1cccc(-c3ccccc3)c1)C2 -7.45%
CCN(CC)CCOC(=O)C1(c2ccc([N+](=O)[O-])cc2)CCCC1
Cc1c(C(=O)NC2CCCCCC2)sc2ncnc(NCC3CCCO3)c12 (stereo unspecified) 5.59%
COc1ccc(CN2C[C@H](C)[C@@H](CC(=O)NCc3ccccc3)C2=O)cc1 -0.0148%
CC1(C)C2CC[C@@]1(C)C(=O)C2 9.77%
C=C1C[C@]23CC[C@H]4C(CO)(CO)C[C@@H](O)C[C@@]4(C)[C@@H]2CC[C@H]1C3 -15.5%
Nc1ccc(O)c(C(=O)O)c1 0.11%
COc1ccc(Oc2ncc3nc(-c4ccc(F)cc4)c(=O)n(C)c3n2)cc1 8.14%
O=c1[nH]c(=O)c2nc(Br)n(C3OC(CO)C(O)C3O)c2[nH]1 (stereo unspecified) 9.26%
COc1ccc(NC(=O)N2CCCC3(CCN(C(=O)c4csnn4)CC3)C2)cc1 9.95%
CNC(=O)[C@H]1O[C@@H](n2cnc3c(NCc4ccc(N)cc4)ncnc32)[C@H](O)[C@@H]1O
O=c1cnc2cnc(N3CCNCC3)nc2n1Cc1ccc(F)cc1 1.6%
COc1ccccc1-c1ccnc(-n2ncc(C(=O)N3CCN(C(C)C)CC3)c2-c2ccco2)n1 19.1%
O=C(O)[C@H](O)[C@@H](O)[C@H](O)[C@H](O)CO
c1ccc(-c2csc(-c3nc4ccccc4[nH]3)n2)cc1 -3.06%
COC(=O)N1CCC[C@@]2(CCN(C(=O)NC(C)C)C2)C1 8.07%
COc1cc2c(cc1O)CC[C@@H]1[C@@H]2CC[C@]2(C)[C@@H](O)CC[C@@H]12 5.56% [at 75.8 µM]
CC1(C)C(C=C(Cl)Cl)C1C(=O)OCc1cccc(Oc2ccccc2)c1 (stereo unspecified) -8.47%
OC(c1ccc2c(c1)CN(Cc1cccn1-c1cccnc1)CCO2)C1CCCCC1 (stereo unspecified) -4.54%
O=C(c1csnn1)N1CCC2(CC1)CN(c1ncccn1)C2 -0.349%
O=c1[nH]c(=O)n([C@@H]2O[C@H](CO)[C@@H](O)[C@H]2O)cc1F 12.5%
COc1ccccc1CN1CC[C@@]2(CCCN(S(C)(=O)=O)C2)C1 15.9%
COc1ccccc1CN1CC[C@@]2(CCCN(C(=O)c3ccncc3)C2)C1 4.58%
Cn1cccc1C(=O)N1CCC2(CC1)CN(c1ccccn1)C2 4.19%
CN(C)c1ncc2nc(-c3ccc(Cl)cc3)c(=O)n(C3CC3)c2n1 10.2%
CN(C)c1ccc(-c2nc(-n3ccnc3)c3ccccc3n2)cc1 -11.1%
CC(C)[C@@H]1[C@H]2CC[C@H](C2)[C@H]1N 13.7%
COC(=O)C1=C(C)NC(C)=C(C(=O)OC)C1c1ccccc1[N+](=O)[O-]
CCCCCCCCCCCCCCCCCCOC[C@H](COP(=O)([O-])OCC[N+](C)(C)C)OC
Cc1noc(C)c1-c1cncnc1Nc1ccccc1 10.1%
Cc1ccccc1-c1cc(N(C)Cc2ccco2)ncn1 -14.5%
NC(=O)CC[C@@H]1NC(=O)[C@H](Cc2ccccc2)NC(=O)[C@H](Cc2ccc(O)cc2)NC(=O)[C@@H](N)CSSC[C@@H](C(=O)N2CCC[C@H]2C(=O)N[C@@H](CCCN=C(N)N)C(=O)NCC(N)=O)NC(=O)[C@H](CC(N)=O)NC1=O
COc1ccccc1C(=O)N[C@@H]1c2ccccc2C2(CCN(Cc3cccnc3)CC2)[C@H]1O 4.13%
CCCCCc1ccc(-c2cn(Cc3ccc4ccccc4c3)nn2)cc1 5.54%
CC(=O)Nc1cc(C(=O)N2CCSCC2)cc2ncn(CCc3ccccn3)c12 11.1%
Cc1ncc2c(c1CNC(=O)c1ccc3c(c1)OCO3)CCN(C(=O)c1csc3c1CCCC3)C2 16.7%
C[C@@H]1CC(=O)NN=C1c1ccc(NN=C(C#N)C#N)cc1 4.39%
COc1c(C=O)c(=O)[nH]c2c(OC)cccc12 29.4%
COc1ccc(-c2nc(C(=O)N3CCN(C)CC3)sc2-c2ccc(OC)cc2)cc1 -28.9%
CC(=O)Nc1ccc(SC[C@H](Cc2ccccc2)N2CC[C@@H](N)CCC2=O)cc1 -24.2%
CC(=O)OCC(=O)[C@@]1(O)CCC2C3CCC4=CC(=O)CC[C@]4(C)C3C(O)C[C@]21C (stereo partly specified) -1.37%
Cc1nc2ccccc2nc1CN1CCOc2ccc(CN3CCc4sccc4C3)cc2C1 9.48%
CS(=O)(=O)Nc1cccc(-c2nc(NC3CC3)c3ccccc3n2)c1 4.65%
CCCCCCCCC#CCC#CCC#CCCCC(=O)O 19.7% [at 15.3 µM]
O=c1cc(-c2cc(O)c(O)c(O)c2)oc2cc(O)cc(O)c12 -20%
Cc1c(C(=O)NCC2(c3ccccc3)CCOCC2)cnn1-c1nccc(-c2ccco2)n1 19.3%
Cc1noc(C)c1C(=O)N1CCC2(CCN(Cc3nccs3)CC2)CC1 16.3%
CN1CCN(CCCN2c3ccccc3Sc3ccc(S(=O)(=O)N(C)C)cc32)CC1 29.1% [at 75.8 µM]
CCCC[P+](CCCC)(CCCC)Cc1ccc(NC(=O)[C@@H](Cc2ccc3ccccc3c2)NC(=NC2CCCCC2)NC2CCCCC2)cc1 -1.67%
COCc1ccc(CN2CCOc3ccc(C4=CCCCC4)cc3C2)o1 12.9%
CNc1ncncc1-c1c(C)noc1C 2.93%
N[C@H](C(=O)O)C1[C@H](C(=O)O)[C@H]1C(=O)O (stereo partly specified) -3.28%
O=c1[nH]cc(F)c(=O)[nH]1
O=C(O)c1cc(=O)c2cccc(O)c2[nH]1
CCOc1cc(NC(C)=O)ccc1C(=O)OC 11.1%
COc1ccc(CNc2nc(-c3cccnc3)nc3ccccc23)c(OC)c1 -10.7%
Cc1c(C(=O)NCC2(N3CCOCC3)CCCCCC2)cnn1-c1nccc(-c2ccccc2F)n1 -14.3%
C[C@]12C=CC(=O)C=C1CC[C@@H]1[C@@H]2[C@@H](O)C[C@@]2(C)[C@H]1CC[C@]2(O)C(=O)CO 21.6%
COc1cccc(CN2C(=O)NC(C)(C3CCN(Cc4ccc(C)o4)CC3)C2=O)c1OC (stereo unspecified) 8.57%
CC(C)Cc1ccc([C@H](C)C(=O)O)cc1
COCC(=O)Nc1cc(C(=O)N2CCCC2c2nccs2)c2c(c1)nc(-c1ccncc1)n2C (stereo unspecified) 8.33%
COc1cccc(-c2cncnc2Nc2ccc(F)cc2)c1 11.6%
CS(=O)(=O)NCc1ccccc1Br -9.38%
CS(=O)(=O)c1ccc([C@@H](O)[C@@H](CO)NC(=O)C(Cl)Cl)cc1 7.5% [at 75.8 µM]
O=C1CC[C@H](C(=O)O)N1 -9.06%
COc1ccc(CCN(C)Cc2cc(-c3cncnc3)ccc2O)cc1OC 5.29%
COc1ccc(-n2c(=O)c(C)nc3cnc(OC)nc32)cc1 19%
COC(=O)C[C@H]1c2cc(F)cc(F)c2S(=O)(=O)N1C1CCN(Cc2ccccc2)CC1 0.282%
O=C(c1ccco1)N1CCC2(CCCN(C(c3ccccc3)c3ccccc3)C2)CC1 11.6%
O=c1c(-c2cc(F)cc(F)c2)nc2cnc(N3CCOCC3)nc2n1CCc1ccccc1 1.31%
COCCn1c(=O)c(C)nc2cnc(Nc3cccc(OC)c3)nc21 11.5%
CC(=O)Oc1cc(C(F)(F)F)ccc1C(=O)O 9.56% [at 75.8 µM]
N=c1ccn2c(n1)O[C@H]1[C@H](O)[C@@H](CO)O[C@H]12
CCCCCCCCCCCCCCCCCC(=O)OC[C@@H](O)[C@H]1OC[C@H](O)[C@H]1O 3.48%
CC(=O)Oc1c(C)cccc1C(=O)O 11.5%
CN(C)c1nc(-c2ccc3c(c2)OCO3)nc2ccccc12 -7.17%
CCCCCCCC/C=C\CCCCCCCC(=O)NCc1ccc(O)c(OC)c1 -12% [at 75.8 µM]
COc1ccc(C(=O)N2CCC[C@@]3(CCN(Cc4nccs4)C3)C2)cc1 19.8%
CCN(Cc1ccncc1)Cc1ccc2c(c1)CN(C(=O)c1ccccc1-n1cccn1)CCO2 5.38%
O=C1NC(=O)/C(=C/c2ccc(-c3ccc(F)cc3O)o2)S1 -7.07% [at 75.8 µM]
Nc1ncnc2c1ncn2C1OC(CO)C(O)C1O (stereo unspecified)
O=C(Nc1ccccc1)N1CCC2(CC1)CCN(C(=O)c1cccc(F)c1)CC2 11.7%
CC(C)c1ccc2c(c1)CCC1C(C)(C(N)=O)CCCC21C (stereo unspecified) -20%
CCCn1c(=O)c2[nH]c(-c3ccccc3)nc2n(CCC)c1=O
COc1ccccc1N(C)C 8.72%
O=c1c(-c2cccc(F)c2)nc2cncnc2n1-c1ccccc1 13.2%
COc1ccccc1N1CCN(c2nc(CNC(=O)c3ccccc3F)nc3ccccc23)CC1 13.9%
CCCCCCCCCCCCCCCCCC(=O)O -10.7%
CCCCC(=O)OCC(=O)[C@]1(O)Cc2c(O)c3c(c(O)c2[C@@H](O[C@H]2C[C@H](NC(=O)C(F)(F)F)[C@H](O)[C@H](C)O2)C1)C(=O)c1c(OC)cccc1C3=O -16.9%
N#Cc1ccc(CN2CC[C@@]3(CCCN(S(=O)(=O)c4ccccc4)C3)C2)cc1 2.27%
CCC(=O)OC(OP(=O)(CCCCc1ccccc1)CC(=O)N1C[C@H](C2CCCCC2)C[C@H]1C(=O)O)C(C)C (stereo partly specified) -1.26%
Clc1ccc2c(c1)N=C(N1CCNCC1)c1ccccc1N2
Cc1cc(N(C)C)c(C)cc1/C=C/c1ccnc2ccccc12 42.8%
CC(=O)OC/C=C(C)/C=C/C=C(C)/C=C/C1=C(C)CCCC1(C)C
O=C(c1cccc(F)c1F)N1CCOc2ccc(CN3CCN(Cc4ccccn4)CC3)cc2C1 8.62%
Cn1c(C2CCC2)nc2cc(C(=O)N3CCOc4ccccc4C3)cc(NC(=O)C3CCCO3)c21 (stereo unspecified) 2.61%
O=C(c1ccc2c(c1)OCO2)N(Cc1cc2ccc(F)cc2nc1N1CCC(O)CC1)CC1CCCO1 (stereo unspecified) 2.55%
O=C(Nc1ccccc1)[C@@H]1CC=C[C@@H]2CCN(C3CC3)C(=O)[C@@H]21 5.95%
